Laboratory results reported in PubChem BioAssay AID1347073 (National Center for Advancing Translational Sciences (NCATS), 2019).
Screen size: about 45,000 compounds; about 200 (0.44%) were called active. Inconclusive results (about 7%) are left out. The call rests on the fitted dose curve; in most records, active means well fitted activation curve with a large enough effect; inconclusive means small, poorly fitted or top-dose-only effect; inactive means no such curve, though single readings can be large or run the other way. This is one part of the list.

Assay: qHTS of TDP-43 Inhibitors: NCGC Sytravon Library Screen; further: nearly all actives have a fitted effect of over 55% in size; on growth rescue (activation): 0% is about no effect
Conditions: yeast TDP-43 toxicity rescue, BacTiter-Glo growth, 24 h; series mostly up to 46.1 µM; growth rescue (activation): at the top concentration
Procedure, shortened: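 TDP-43-expressing yeast, pregrown in raffinose, seeded at OD600 0.02 in galactose medium with compound for 24 hr at 30 deg C. Growth read by BacTiter-Glo luminescence, so rescue of toxicity appears as activation.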
Potency means the concentration at half of the fitted maximal effect.

Compound	growth rescue (activation)	Potency
Cc1cc(NC(=O)c2cc(C)on2)n(-c2ccccc2)n1	inactive: 7.75%	–
O=C(NCCNC(=O)c1ccc(Cl)cc1Cl)c1ccccn1	inactive: 1.59%	–
Cc1cccnc1C(NC(=O)C1CCN(Cc2ccc(Cl)c(Cl)c2)CC1)c1ccc(Cl)cc1 (stereo not given)	inactive: 6.99%	–
COc1ccc(-c2[nH]ncc2CN2CCCC(C(=O)c3cccc(OC)c3)C2)cc1 (stereo not given)	inactive: 6.87%	–
COc1cc(NC(=O)C/C(C)=N/NC(=O)Cc2ccc(Cl)cc2)c(OC)cc1Cl	inactive: 18.9%	–
Cc1ccc(F)c(S(=O)(=O)NC(=O)C2(C)CCN2C(=O)c2ccc(C(F)(F)F)nc2C)c1 (stereo not given)	inactive: 2.82%	–
COC(=O)C1CCN(C(=O)Cn2nnc(-c3ccccc3)n2)CC1	inactive: -2.52%	–
CCOC(=O)COc1ccccc1/C=C1/NC(=O)NC1=O	inactive: 18.9%	–
COc1ccc(O)c(C2=Nc3ccccc3N=C(c3cccs3)C2)c1	inactive: -3.69%	–
COc1ccc(NC(=O)C2Cc3c(-c4ccc(Cl)cc4)ccnc3O2)cc1 (stereo not given)	–	active: 20 µM
CCCc1ccc(C(O)c2ncc(-c3cccc(F)c3)[nH]2)cc1 (stereo not given)	inactive: 13.1%	–
Cc1ccc2ccc3cccnc3c2n1	inactive: 10.2%	–
O=C(Cc1ccccc1[N+](=O)[O-])Nc1nccs1	inactive: 24.9%	–
CCOC(=O)C1(Cc2cccc(Cl)c2)CCCN(CCO)C1 (stereo not given)	inactive: 11.2%	–
Cc1ccn(Cc2n[nH]c(=S)n2Cc2ccccc2)n1	inactive: -4.31%	–
CC(=O)c1sc(N/N=C/c2cccc([N+](=O)[O-])c2)nc1C	inactive: 6.3%	–
CC(NC(=O)C1CCC(CNc2c(N3CCCCC3)c(=O)c2=O)CC1)c1ccccc1 (stereo not given)	inactive: -13.8%	–
O=C(CSC(=O)c1ccccc1)Nc1ccccc1F	inactive: 14%	–
O=C(COC(=O)[C@@H]1CCCN1C(=O)c1cccs1)Nc1cccc([N+](=O)[O-])c1	inactive: 25.8%	–
O=C(N/N=C/c1ccc([N+](=O)[O-])o1)C1CC1	inactive: 26%	–
O=C(CNC(=O)c1ccc(Cl)c([N+](=O)[O-])c1)NCC1CCCO1 (stereo not given)	inactive: 4.37%	–
COc1cccc(OC)c1C(=O)N=c1sc2cc(S(C)(=O)=O)ccc2n1C	inactive: 6.6%	–

Compound	growth rescue (activation)	Potency
c1ccc(-c2nc3ccccn3c2NC2CCCC2)nc1	inactive: -20.9%	–
CCN(CC(=O)Nc1ccc(C(C)=O)cc1)CC(=O)Nc1ccc2c(c1)OCCO2	inactive: -11.5%	–
CCN(Cc1ccncc1)Cc1cn[nH]c1-c1ccc(OC)cc1F	inactive: 6.77%	–
Cc1cc(C(=O)COC(=O)C23CC4CC(CC(O)(C4)C2)C3)c(C)n1C	inactive: -2.2%	–
COc1ccc(S(=O)(=O)N2CCC(C(=O)NC(C)CCc3ccccc3)CC2)cc1 (stereo not given)	inactive: 19.4%	–
Cc1ccc(S(=O)(=O)N2CC(O)CC2C(=O)OCC(=O)Nc2ccc([N+](=O)[O-])cc2C(F)(F)F)cc1C (stereo not given)	inactive: 24.1%	–
CCn1cc(CNC(=O)CC2C(=O)NCCN2CC(c2ccccc2)c2ccccc2)cn1 (stereo not given)	inactive: -2.72%	–
Cc1ccc(CNC(=O)c2ccc3c(c2)NC(=O)C(N2CCOCC2)S3)cc1 (stereo not given)	inactive: -21.1%	–
COc1ccc(CCNC(=O)c2ccc(=O)[nH]c2)cc1	inactive: -4.23%	–
CC(C)(C)c1ccc(OCCCNC2CCCC2)cc1	inactive: -10.8%	–
CCC1CCCCN1CCCNC(=O)c1ccc(CS(=O)(=O)Cc2ccccc2F)o1 (stereo not given)	inactive: -23.4%	–
Cc1occc1C(=O)N/N=C/c1c(O)ccc2ccccc12	inactive: 9.09%	–
CCOc1ncccc1C(=O)NCCc1ccc(OC)cc1	inactive: 27.8%	–
O=C(O)c1cc(-c2ccc(N3CCOCC3)cc2)nn1-c1ccc(F)cc1F	inactive: -7.16%	–
C/C(=N\NC(=O)c1cccs1)c1ccc2c(c1)OCO2	inactive: -2.3%	–
O=C(Nc1ccc([N+](=O)[O-])cc1)c1cccc(S(=O)(=O)Nc2ccccn2)c1	inactive: -4.99%	–
Oc1ccccc1-c1nc(NCc2ccccc2)c2ccccc2n1	inactive: -3.88%	–
CCOC(=O)c1n[nH]c(=O)c2ccccc12	inactive: 1.4%	–
Cc1cccc(NCc2ccccc2OCc2ccccc2F)c1	inactive: 16.3%	–
COc1cc(/C=C2\SC(=S)N(NC(=O)c3ccccc3OC)C2=O)ccc1O	inactive: -4.19%	–
O=C(C1COc2ccccc2O1)N1CCN(c2ccccc2Cl)CC1 (stereo not given)	inactive: 0.636%	–
CC(=O)Nc1ccc(C(=O)NCCc2ccccc2)cc1	inactive: 1.01%	–

Compound	growth rescue (activation)	Potency
CCn1cc(C2=NC(CC(C)C)CO2)c2ccccc21 (stereo not given)	inactive: -13.9%	–
Cc1ccc(S(=O)(=O)N(C)C)cc1NC(=O)COc1ccc(-c2nnco2)cc1	inactive: 1.44%	–
C/C(CC(=O)Nc1ccc(C)c(Cl)c1)=N\NC(=O)c1ccco1	inactive: 20.4%	–
OCCN1CCN(c2ncnc3c2ncn3[C@H]2CN(Cc3ccc4c(c3)OCO4)C[C@@H](CO)O2)CC1	inactive: 4.99%	–
O=C(Nc1nccs1)c1ccc(Cl)c(S(=O)(=O)N2CCOCC2)c1	inactive: 28.5%	–
CC(=O)c1cccc(NC(=O)N2CCCC2C(=O)Nc2ccccc2C)c1 (stereo not given)	inactive: 16.8%	–
O=C(COC(=O)c1ccco1)NC1CCCC1	inactive: 11.7%	–
Nc1c(C(=O)c2ccc(Cl)cc2)sc2nc3c(cc12)CCC3	inactive: 17.2%	–
CCOc1ccccc1NC(=O)C1=C(C)NC(=O)NC1c1cccs1 (stereo not given)	inactive: 8.99%	–
Cc1ccc(NS(=O)(=O)c2ccc(Cl)s2)cc1S(=O)(=O)N(C)C	inactive: -1.59%	–
Cc1ccccc1OCC(=O)Nc1ccc(S(=O)(=O)Nc2onc(C)c2C)cc1	inactive: -14.2%	–
Cc1ccc(NC(=O)c2ccccn2)c(Br)c1	inactive: 20.8%	–
CC(C)Oc1cccc(C(=O)N2CCCC2)c1	inactive: 5.42%	–
COc1cc(C(=O)NNC(=O)CCOc2ccccc2C)cc(OC)c1OC	inactive: 4.58%	–
O=S(=O)(/C=C/c1ccccc1)N1CCN(c2nc(-c3ccccc3)nc3ccccc23)CC1	inactive: 15.3%	–
NC(=O)Nc1ccc(C(=O)OCC(=O)NC2CCCCC2)cc1	inactive: 8.88%	–
O=C(O)c1nccnc1C(=O)Nc1ccc(Cl)cn1	inactive: -5.69%	–
Cc1ccc(C(O)c2nc3ccccc3n2C(C)C)cc1 (stereo not given)	inactive: 17.6%	–
COc1ccc(CNc2ncnc3sccc23)cc1OC	inactive: 25.6%	–
O=C(O)C1CCCCC1C(=O)NCc1ccc(Cl)c(Cl)c1 (stereo not given)	inactive: 6.83%	–
CSc1nc2nc(-c3cccs3)cc(C(F)(F)F)c2c(=O)[nH]1	inactive: 2.88%	–
CC(=O)Nc1ccc(C(=O)N2CCCCC2c2cc(C(=O)N3CCOCC3)no2)cc1 (stereo not given)	inactive: -8.3%	–

Compound	growth rescue (activation)	Potency
Cc1ccc(C)c2c1cc(C)c1nnc(SCC(=O)Nc3nc4c(s3)CCCC4)n12	inactive: 12.6%	–
COC(=O)N/N=C\c1ccc(OC(=O)c2ccco2)cc1	inactive: -17.6%	–
Cc1ccc(NC(=O)c2ccc(Br)o2)cc1S(=O)(=O)N(C)C	inactive: -4.75%	–
COc1ccc(C(=O)Nc2ccccc2)cc1S(=O)(=O)NCc1ccco1	inactive: -8.51%	–
CC(=O)c1ccc(Oc2ccc(C(=O)c3ccc(C)c(C)c3)cc2[N+](=O)[O-])cc1	inactive: 11.6%	–
S=C(NCCCN1CCOCC1)Nc1ccc(Cl)cc1Cl	inactive: 9.54%	–
O=C(C[n+]1ccc(CCSc2ccc(F)cc2)cc1)c1ccccc1	inactive: 12.4%	–
Cc1ccc(S(=O)(=O)N(C)C)cc1NC(=O)C(C)OC(=O)c1cc[n+]([O-])cc1 (stereo not given)	inactive: 9.3%	–
CCOc1cccc(/C=N/NC(=O)c2ccc3c(c2)OCCO3)c1O	inactive: -11.8%	–
COc1ccc(N(C(=O)c2snc(C(N)=O)c2N)C(C(=O)NCC2CCCO2)c2ccc(C)o2)cc1OC (stereo not given)	inactive: 11.7%	–
Cc1ccc(O)c(NC(=O)c2cc(-c3ccc(F)cc3)on2)c1	inactive: -15.5%	–
COC(=O)c1ccc(Cl)cc1NC(=O)NC(C)c1c(-n2cccc2)sc(C)c1C (stereo not given)	inactive: 14.5%	–
Cc1cc(/C=C2\SC(=O)NC2=O)c(C)n1-c1ccc(N2CCOCC2)cc1	inactive: 9.89%	–
CCCCCc1ccc(OCCCC[n+]2cccc(C)c2)c(CCCCC)c1	inactive: -87%	–
Cc1ccnc2nc(C(=O)OCC(=O)c3ccccc3)nn12	inactive: 1.06%	–
O=C(O)C1Sc2[nH]c(=O)sc2C2c3cc(Br)ccc3OC(=O)C12 (stereo not given)	inactive: -13.8%	–
CCOC(=O)C(NC(=O)c1ccccc1)=C1C=C(C)OC(C)=C1	inactive: -1.05%	–
O=C(COC(=O)/C=C/c1cccc(F)c1)NC1CC1	inactive: 22.4%	–
CC(CCc1ccccc1)NC(=O)C(=O)Nc1ccccc1 (stereo not given)	inactive: -6.89%	–
COc1cc(OC)cc(C(=O)Nc2ccc(S(=O)(=O)Nc3ccccn3)cc2)c1	inactive: 18.3%	–
Cc1cc(F)ccc1-c1cc(C(=O)NCc2cc(C(F)(F)F)cc(C(F)(F)F)c2)[nH]n1	inactive: -7.09%	–
Cc1nc2ccccn2c1C(=O)NN=C1CCCC1	inactive: -2.62%	–

Compound	growth rescue (activation)	Potency
O=C(NC1CCCCC1)c1cc2cc(Br)ccc2o1	inactive: 17.1%	–
O=C(CSc1nnc(-c2ccco2)o1)N1CCCCC1	inactive: -17.6%	–
CCCC(C(=O)NCc1ccco1)N(Cc1ccco1)C(=O)CNS(=O)(=O)c1ccccc1 (stereo not given)	inactive: 14.8%	–
Cc1cc2c(cc1S(=O)(=O)N(C)c1ccccc1)NC(=O)CO2	inactive: 1.54%	–
O=C(O)CCC(=O)N1N=C(c2ccc(Br)cc2)CC1c1cccc(Br)c1 (stereo not given)	inactive: 1.02%	–
CCN(CC)C(=O)c1ccc(NS(=O)(=O)c2ccccc2)cc1	inactive: -2.75%	–
CC(C)Nc1nnc(Sc2ccc(Cl)cc2[N+](=O)[O-])s1	inactive: 12.9%	–
CC(C)N(Cc1cn[nH]c1-c1ccc(-c2ccccc2)cc1)Cc1nccn1C	inactive: 11.3%	–
CCCCCc1nnc(NC(=O)Cn2cnc3ccccc3c2=O)s1	inactive: 1.03%	–
COC(=O)N=Nc1c(O)[nH]c2ccc(Br)cc12	inactive: -6.19%	–
Cc1ccc(C(=O)N2CCN(c3ccc(NC(=S)NC(=O)c4cccs4)cc3)CC2)cc1	inactive: -24%	–
CN(C)CCNc1nc(Oc2ccccc2)c2sccc2n1	inactive: 7.99%	–
O=C(COC(=O)c1ccc(Br)o1)NCc1ccc(Cl)cc1	inactive: 15.6%	–
Cc1ccc(NC(=O)C2(C)CCN2C(=O)C2CCCCC2)cc1C (stereo not given)	inactive: 24.7%	–
COc1ccc(/C=C/C(=O)Nc2cc(C)on2)cc1	inactive: 8.46%	–
CCOc1ccc(N(CC(=O)NCc2ccc3c(c2)OCO3)C(=O)c2csnn2)cc1	inactive: 8.75%	–
O=C(NCCc1ccc(Cl)cc1)C(=O)c1c[nH]c2ccccc12	inactive: 17.4%	–
CN1CCN(C(=O)CN(C)S(=O)(=O)c2ccc(F)cc2)CC1	inactive: 9.18%	–
CC1=NN(c2ccccc2)C(=O)C1C=Nc1ccccc1O (stereo not given)	inactive: -0.213%	–
Cc1ccccc1NC(=O)C1Cc2ccccc2CN1C(=O)c1ccco1 (stereo not given)	inactive: 12.1%	–
CSc1ccccc1NC(=O)NCCCl	inactive: -12.3%	–
CCCNC(=O)C1(C)CCN(Cc2ccc(-c3ccccn3)cc2)C1 (stereo not given)	inactive: 2.53%	–
